Data on 109 compounds can be found in PubChem BioAssay AID488969 (Vanderbilt High Throughput Screening Facility, 2010).

In all, about 110,000 compounds were measured (“z-score”: median about -0.1, highest 2% from about 2 on). This is one part of the list. Calls of active or inactive are those of the source.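 The calls were made as follows: active = z-score in the third read window above 3 or below -3; inactive = the rest.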

This assay has as its target Metabotropic glutamate receptor 8 (Rattus norvegicus) (UniProt P70579). Nature of the assay: mGluR8 Gi/Go-coupled signaling modulation – cell-based, rat, thallium flux, HTS, primary screen (AID 488969). Conditions: HEK293 rat mGluR8, GIRK (G protein-gated inwardly rectifying potassium channel) thallium flux, FluoZin2; at 10 µM; stronger effect = higher value; submaximal glutamate (EC20) added with thallium.
Sequence of UniProt P70579 (P70579 whole entry, looked up): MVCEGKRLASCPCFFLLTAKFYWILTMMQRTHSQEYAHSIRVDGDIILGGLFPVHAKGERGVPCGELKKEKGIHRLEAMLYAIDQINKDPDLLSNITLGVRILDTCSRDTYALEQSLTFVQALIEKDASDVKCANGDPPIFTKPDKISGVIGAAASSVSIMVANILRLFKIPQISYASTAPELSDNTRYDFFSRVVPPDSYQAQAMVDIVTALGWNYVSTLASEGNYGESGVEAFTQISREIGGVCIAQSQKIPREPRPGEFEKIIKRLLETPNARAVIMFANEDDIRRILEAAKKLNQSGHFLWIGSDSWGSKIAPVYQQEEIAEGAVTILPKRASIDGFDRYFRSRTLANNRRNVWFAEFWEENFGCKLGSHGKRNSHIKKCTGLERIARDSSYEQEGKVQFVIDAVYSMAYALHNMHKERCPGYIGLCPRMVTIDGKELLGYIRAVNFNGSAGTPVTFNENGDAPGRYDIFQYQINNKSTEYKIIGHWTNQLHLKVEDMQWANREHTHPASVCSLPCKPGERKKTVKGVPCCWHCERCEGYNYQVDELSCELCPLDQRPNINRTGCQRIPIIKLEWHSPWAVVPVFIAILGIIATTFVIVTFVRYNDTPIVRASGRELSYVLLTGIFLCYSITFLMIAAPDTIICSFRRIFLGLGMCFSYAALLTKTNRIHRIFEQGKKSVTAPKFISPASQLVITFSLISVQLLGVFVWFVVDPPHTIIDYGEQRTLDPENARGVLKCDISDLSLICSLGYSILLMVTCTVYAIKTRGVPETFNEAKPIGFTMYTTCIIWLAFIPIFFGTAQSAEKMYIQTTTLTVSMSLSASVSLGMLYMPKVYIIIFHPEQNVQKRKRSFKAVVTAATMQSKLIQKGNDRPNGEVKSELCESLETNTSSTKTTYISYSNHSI
For the compound `Cc1cc(=O)n2c(c1C#N)SC1CCCCC12O` (centres undefined), the z-score is -0.0971.
The value for `Cc1nc(SCC(=O)Nc2c(C)n(C)n(-c3ccccc3)c2=O)[nH]c(=O)c1Cc1ccccc1` was -0.651.
`C=CCN(Cc1cc(OC)ccc1OC)S(=O)(=O)N(C)C` showed a z-score of -0.223.
Under `CC(C)(C)NC(=O)CN(Cc1cccs1)C(=O)c1csnn1` stands -0.338; under `Cc1cc2cc(CN(CC3CCCO3)C(=S)Nc3ccccc3)c(=O)[nH]c2cc1C` (centres undefined), -0.235; under `CN(C)c1cc(C(F)(F)F)nc(-c2ccccn2)n1`, 0.0157.
Under `C/C(=C\c1ccccc1)CN1CCC(C(=O)N2CCC(C)CC2)CC1` stands 0.0588; under `O=C(Nc1nc(-c2ccccc2)cs1)c1cccnc1`, -0.0109.
Compound `Cc1ccc(S(=O)(=O)Nc2c(C)n(C)n(-c3ccccc3)c2=O)cc1C(=O)NCc1ccccn1` gave a z-score of -0.336.
Under `COc1cc2c(=O)n(Cc3ccco3)c(=O)n(CC(=O)c3cccc(Br)c3)c2cc1OC` stands 0.654; under `O=c1[nH]c2cc3c(cc2cc1C(c1nnnn1C1CCCC1)N1CCSCC1)OCCO3` (centres undefined), -0.0721; under `CC(C)(C)c1ccc(C(=O)NC(=S)Nc2ccc(N3CCOCC3)cc2)cc1`, -0.0299.
The value for `O=C(Cn1cccc1C(=O)c1ccccc1)NCc1ccco1` was 0.237.
As for `CCOC(=O)Cc1csc(SCC(=O)NC2CCCCC2)n1`, the z-score came out at 0.0608.
The value for `O=C(/C=N\O)NCCCNCc1ccccc1` was -0.171.
The value for `CC(SC1CCCC1)C(=O)Nc1ccnn1C(C)C` (centres undefined) was -0.159.
The value for `CCOc1ccc(-c2nnc(N(CC)C(=O)C3CCC3)s2)cc1` was 0.0114.
Compound `CC1CCCC(C)N1CC(C)(C)NS(=O)(=O)c1ccc(Cl)cc1` (centres undefined) had a z-score of 0.572.
Under `COc1ccccc1C(CCN(Cc1cccs1)C(C)=O)c1ccco1` (centres undefined) stands -0.603; under `O=C(NN1C(=O)C2C3C=CC(C3)C2C1=O)c1ccncc1` (centres undefined), -0.157.
Under `CCOC(=O)c1cc(-c2ccccc2)sc1NC(=S)Nc1cc(C)ccn1` stands 0.395; under `CCC(C)(C)NC(=O)CN(CC1CCCO1)C(=O)CCC(=O)Nc1nccs1` (centres undefined), -0.31.
Turning to `CCSc1nnc2c(Cl)cc(Cl)cn12`, the z-score was -0.233.
For the compound `CCCn1nnc(NCc2ccc(OCc3cccs3)c(OC)c2)n1`, the z-score is 0.705.
`CN1CCN(S(=O)(=O)c2cccc(C(=O)Nc3sc4c(c3-c3nc5ccccc5[nH]3)CCCC4)c2)CC1` returned a z-score of -0.27.
Under `COc1ccc(C2=NOC(C(=O)NCCCn3ccnc3)C2)cc1` (centres undefined) stands -0.166; under `C/C(=N\O)c1c(C)c2ccccc2n1C`, 0.566; under `COc1ccccc1NS(=O)(=O)c1cc(NC(=O)c2ccc3c(c2)OCCO3)ccc1C`, -0.423.
Under `Cc1ccccc1CN1CCN(CC(=O)NCc2ccco2)C1=O` stands 0.0532; under `O=C1c2ccccc2C(=O)N1CCCC(=O)N1CCCc2ccccc21`, 0.145.
The value for `O=C(N/N=C(\c1ccccc1)c1cccnc1)C(O)(c1ccccc1)c1ccccc1` was -1.71; that for `COc1ccc(S(=O)(=O)N(C)CC(=O)N2CCCCCC2)cc1OC` was 1.16; that for `CCOc1ccccc1C(=O)N[C@H](C(=O)OCc1cc(=O)oc2cc(C)ccc12)C(C)C` was -2.48.
Consider `CC(=O)c1ccc(NCC(=O)N2CCN(c3ccccc3)CC2)cc1`, for which the z-score was -0.381.
Regarding `CCN(CC)C1=NC=CC(c2ccccc2)=CC1C` (centres undefined), the z-score amounted to 0.079.
Compound `C[n+]1cn(CC(O)COCc2ccccc2)c2ccccc21` (centres undefined) yielded a z-score of -0.311.
The value for `COc1ccc(C(=O)NCCCCCC(=O)O)cc1OC` was -0.868.
Under `O=C(COC(=O)c1cccc(Oc2ccccc2)c1)NCc1ccco1` stands -0.177; under `COc1ccc(/C=N/NC(=O)C[n+]2ccccc2)c(OC)c1OC`, -0.273; under `CC1(C)OC(=O)N(c2ccccn2)C1(C)O` (centres undefined), 0.374.
The value for `O=C(CCCCCn1c(=S)[nH]c2cc3c(cc2c1=O)OCO3)N1CCN(Cc2ccccc2)CC1` was 0.177.
With `COc1ccc(/C(O)=C2/C(=O)C(=O)N(CCN(C)C)C2c2ccccn2)cc1OC` (centres undefined), the z-score came to 0.0254.
Under `O=S(=O)(N1CCCCC1)N1CCCN(S(=O)(=O)N2CCCCC2)CC1` stands -0.684.
As to `c1ccn2c(Cc3nnc4ccccn34)nnc2c1`, the z-score worked out at 0.422.
The value for `Cc1ccc(-c2noc(CSc3nnc(-c4ccncc4)n3-c3ccc(C)cc3)n2)cc1` was -0.0672; that for `CC(C)CNC(=O)c1cc(-c2ccc(Br)cc2)on1` was 0.671; that for `COc1ccc(N2C(=O)C(Cl)=C(N(CCO)Cc3ccccc3)C2=O)cc1` was 0.147.
The value for `O=C(CCC(=O)Nc1ccccc1)NNC(=O)c1ccco1` was 0.0483; that for `Nc1ccc(Nc2ccccc2)c(Cl)c1` was -1.03; that for `CCCn1c(=O)c2ccccc2n2c(SCc3c(C(=O)OCC)oc4ccccc34)nnc12` was -0.857.
Under `O=C(N=NC(=O)c1ccc2c(O)n(C3CCCCC3)c(O)c2c1)c1cccnc1` stands 0.507.
As for `Cc1nn(C)cc1CNC(=O)c1cccc(F)c1`, the z-score is -0.127.
The value for `C=CCn1c(=O)c2c3c(sc2n2c(Nc4ccc(C(=O)OCC)cc4)nnc12)CCCC3` was -0.187; that for `COc1nc(NS(=O)(=O)c2ccc(C)cc2)nc(C)c1Cl` was 0.0815.
Under `Cn1c(Sc2ccc([N+](=O)[O-])cc2C(F)(F)F)nnc1-c1ccccc1` stands -0.17; under `COc1cccc(-c2nc(CS(=O)(=O)c3ccccc3)no2)c1`, -0.0979; under `O=C(NC(NC(=S)Nc1cccc(Cl)c1)C(Cl)(Cl)Cl)OCc1ccccc1` (centres undefined), -0.198.
Compound `Nc1ccc(Nc2nc(-c3ccncc3)cs2)cc1` gave a z-score of 0.173.
Under `COc1ccccc1NC(=O)COC(=O)c1ccccc1OCC(=O)Nc1ccc(SC(F)F)cc1` stands -0.519; under `O=C(NC(=S)N1CCN(Cc2ccc3c(c2)OCO3)CC1)c1ccc(Cl)cc1`, active: 15.2.
The value for `Oc1cccc(Nc2nc(NCC3CCCO3)c3ccccc3n2)c1` (centres undefined) was 1.93; that for `O=C(CCCCCCN1C(=O)c2ccccc2C1=O)NC1CCCCC1` was -0.436.
`Cc1cccc(S(=O)(=O)NCC2CCCO2)c1` (centres undefined) registered a z-score of 0.496.
The value for `COC(=O)c1cc2ccccn2c2c(C(=O)OC)c(C(=O)OC)cc1-2` was 0.219; that for `COc1ccccc1NC(=S)NCc1ccc2c(c1)OCO2` was -0.0224.
As to `Cc1ccc(S(=O)(=O)N2CCN(C)CC2)c(C)c1N(C)S(=O)(=O)c1ccc(Cl)cc1`, the z-score is -0.146.
In turn, `Cc1nn(Cc2c(F)c(F)c(F)c(F)c2F)c(C)c1NC(=O)c1c([N+](=O)[O-])cnn1C` came in with a z-score of -0.131.
The value for `O=C(CN1C(=O)c2ccccc2S1(=O)=O)Nc1ccccc1` was 0.0516.
As for `O=C(N/N=C\c1ccc(OCC(=O)N2CCCC2)cc1)C(=O)Nc1ccccc1F`, the z-score is -0.26.
The value for `CSc1nc(-c2ccccc2)nn1S(=O)(=O)c1ccc(Cl)cc1` was -0.00219; that for `Clc1ccc2oc3c(Cl)ncnc3c2c1` was -0.993.
The value for `O=c1[nH]c(=O)n(-c2ccccc2)c2c1C(C(F)(F)F)(C(F)(F)F)N=C(CCC1CCCCC1)N2` was 0.411.
On to `FC(F)(F)c1cc(C(F)(F)F)c2ccc(N3CCN(c4ccc(Cl)cc4)CC3)nc2n1`, for which the z-score is -0.0746.
Under `CCCCCC(=O)Nc1ccc2oc(-c3ccncc3)nc2c1` stands -0.428; under `COc1ccc(NC(=S)Nc2cccc3cnccc23)cc1`, -0.198.
`COc1cc(NC(=O)C2CCN(S(=O)(=O)c3cccc4nonc34)CC2)cc(OC)c1` registered a z-score of 0.0561.
In turn, `COc1ccc(-c2ccc(CCC(=O)O)n2C(C)C)cc1` came in with a z-score of -0.109.
Under `CCSc1nnc(-c2ccc(S(=O)(=O)NCc3cccs3)cc2)o1` stands -0.0473.
The value for `Cn1c(SCC(=O)N2CCCCC2)nc2c([nH]c3ccccc32)c1=O` was -0.656; that for `O=C(Nc1cccc(F)c1)c1ccccc1-c1ccccc1` was -0.369; that for `CCCCn1c(NCCC)nc2c1c(=O)[nH]c(=O)n2C` was -0.188.
The value for `O=C(CCn1c(=O)[nH]c2ccsc2c1=O)NCCc1ccc(Cl)cc1` was -0.21; that for `CCN(CC)S(=O)(=O)c1ccc2oc(Nc3ccc4c(c3)OCCO4)nc2c1` was 0.166; that for `Cc1ccccc1NC(=O)c1sc2nc3c(c(-c4ccco4)c2c1N)CCCC3` was -0.131.
In turn, `Fc1ccc2c(c1)C1C=CCC1C(c1cc3c(cc1Br)OCO3)N2` (centres undefined) had a z-score of -0.0336.
The value for `NC(=O)C1CCN(C(c2ccccc2)c2nnnn2C2CCCC2)CC1` (centres undefined) was 0.328; that for `Cc1nnc(N)nc1C` was 1.02; that for `Cc1ccc(OCc2nc(C#N)c(N3CCN(Cc4ccccc4)CC3)o2)cc1` was 0.0819.
Under `COC(=O)C1=C(NC(=O)COc2ccc(Cl)cc2Cl)CCS1` stands 0.19; under `O=C(C[n+]1cccc(CNC(=O)c2ccc(OC(F)F)cc2)c1)Nc1ccccc1Cl`, 0.347.
Take `N#Cc1c(C#N)c(-c2ccccc2)n(-c2ccccc2)c1N`: the z-score is -0.317.
Consider `Cc1cccc(C(=O)O/N=C(\N)c2ccc(Br)cc2)c1`, for which the z-score is -0.121.
Under `O=C(c1cc(-c2ccc(Cl)cc2)on1)N1CCOCC1` stands -0.66; under `COc1ccc(C(=O)N(CC2CCCO2)C(C(=O)NC2CCCC2)c2ccc(C)cc2)cc1OC` (centres undefined), -0.186.
Compound `O=C(CN1C(=O)c2ccccc2C1=O)Nc1ccccc1C(=O)N1CCCC1` yielded a z-score of -0.434.
Under `Fc1ccc(C2NC(=S)NC3=C2N2CCC3CC2)cc1` (centres undefined) stands -0.0689.
In turn, `CCN(CC)S(=O)(=O)c1cccc(C(=O)N[C@H](C(=O)Nc2nc3ccccc3s2)C(C)C)c1` registered a z-score of 0.326.
On to `CCN(CC)S(=O)(=O)c1ccc(C(=O)C(C#N)c2ccccn2)cc1` (centres undefined), for which the z-score was found to be 0.707.
For `O=C(CCCN1C(=O)/C(=C/c2cccs2)SC1=S)NNC(=O)c1ccccc1O`, the z-score was -0.15.
Under `CCCC(=O)Nc1cccc(NC(=O)c2ccc([N+](=O)[O-])cc2Cl)c1` stands -0.236; under `Cn1c(=O)c2c(nc(CN3CCN(c4ccccc4)CC3)n2CCc2ccccc2)n(C)c1=O`, -0.349; under `COc1ccc2c(Cl)c(C(=O)NCCCn3ccnc3)sc2c1Cl`, -0.209.
Under `Cc1cccn2cc(CNC(=O)C3CCCCC3)nc12` stands -0.0588.
The value for `Cc1c(NC(=O)C(CC(=O)O)NCc2ccco2)c(=O)n(-c2ccccc2)n1C` (centres undefined) was -0.257.
`O=C(NCC(c1cccnc1)N1CCOCC1)Nc1ccccc1` (centres undefined) had a z-score of 0.0892.
Under `COc1ccc(S(=O)(=O)NN=C2CCCCC2)cc1` stands 1.17.
Under `CCCN1C(=O)c2ccccc2NC1c1ccc(OC)c(CSc2ccccn2)c1` (centres undefined) stands -0.778; under `COC(=O)c1sccc1NC(=O)c1c(C)c(-c2cccc(Cl)c2)nc2ccccc12`, -0.445.
The value for `O=C1Nc2c(c(=O)[nH]c(=O)n2-c2ccccc2)C1(Nc1ncccn1)C(F)(F)F` (centres undefined) was 0.239.
